# PubChem BioAssay AID488969 (Vanderbilt High Throughput Screening Facility, 2010)
# The full ranking holds about 110,000 compounds; the median of “z-score” is about -0.1, and the highest 2% start at about 2. The list shows a part of the results.
# Target: Metabotropic glutamate receptor 8 (Rattus norvegicus) (UniProt P70579)
# Experiment: mGluR8 Gi/Go-coupled signaling modulation – cell-based, rat, thallium flux, HTS, primary screen (AID 488969)
# Details: HEK293 rat mGluR8, GIRK (G protein-gated inwardly rectifying potassium channel) thallium flux, FluoZin2; at 10 µM; stronger effect = higher value; submaximal glutamate (EC20) added with thallium
# UniProt P70579, sequence (P70579 whole entry, looked up): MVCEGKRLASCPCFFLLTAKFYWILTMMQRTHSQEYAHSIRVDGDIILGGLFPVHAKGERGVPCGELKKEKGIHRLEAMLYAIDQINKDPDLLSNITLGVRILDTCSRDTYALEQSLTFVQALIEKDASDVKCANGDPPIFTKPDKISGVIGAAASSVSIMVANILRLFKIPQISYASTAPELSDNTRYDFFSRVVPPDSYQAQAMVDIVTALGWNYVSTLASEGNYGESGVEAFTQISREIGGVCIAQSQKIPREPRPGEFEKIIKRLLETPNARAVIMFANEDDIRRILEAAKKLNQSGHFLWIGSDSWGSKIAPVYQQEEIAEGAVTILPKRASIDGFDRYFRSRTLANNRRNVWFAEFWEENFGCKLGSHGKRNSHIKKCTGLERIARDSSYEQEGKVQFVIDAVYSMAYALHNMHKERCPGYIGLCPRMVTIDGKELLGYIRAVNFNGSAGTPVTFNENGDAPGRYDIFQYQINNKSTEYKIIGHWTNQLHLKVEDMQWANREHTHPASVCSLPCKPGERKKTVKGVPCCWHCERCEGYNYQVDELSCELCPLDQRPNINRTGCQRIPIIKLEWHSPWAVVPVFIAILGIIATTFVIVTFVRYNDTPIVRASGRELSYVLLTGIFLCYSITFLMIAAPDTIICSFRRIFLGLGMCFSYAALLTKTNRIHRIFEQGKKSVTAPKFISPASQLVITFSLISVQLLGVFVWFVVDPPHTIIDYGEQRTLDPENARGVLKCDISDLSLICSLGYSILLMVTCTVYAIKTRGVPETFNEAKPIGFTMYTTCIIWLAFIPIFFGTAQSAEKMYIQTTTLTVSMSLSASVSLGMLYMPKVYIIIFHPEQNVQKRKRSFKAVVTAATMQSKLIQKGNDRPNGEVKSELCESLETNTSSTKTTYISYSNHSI
row,SMILES,z-score
1,O=c1nc2n(c3sc4c(c13)CCCC4)C(CBr)CS2 (centres undefined),-0.8
2,Cc1cc(Cl)ccc1NC(=S)NCC(C)C,-0.0377
3,CCCCNC(=O)c1cnc2n(c1=O)CCS2,-0.697
4,Cc1c(N(C)C(=O)c2ccc3c(c2)OCO3)c(=O)n(-c2ccccc2)n1C,0.0364
5,CCCCNC(=O)CSc1nnc(Cc2ccccc2)n1CC,0.173
6,COC(=O)CSc1nc(SCc2ccccc2Cl)nc2c1CCCC2,-0.0407
7,Cc1ccc(NC(=O)C2(NC(=O)c3cccc(N4C(=O)CSC4c4ccccc4)c3)CCCCC2)cc1 (centres undefined),-0.262
8,O=[N+]([O-])c1cc(S(=O)(=O)N2CCCC2)ccc1N/N=C/c1cccs1,0.337
9,COc1cc(N2CCCC2)c(OC)cc1/C=C(/C#N)c1ccc(Br)cc1,-0.0363
10,O=C1CC(=C2c3ccccc3-c3ccccc32)C(=O)N1CCN1CCN(c2cccc(Cl)c2)CC1,-0.0614
11,CC1(C)CSC(=S)N1S(=O)(=O)c1ccccc1,0.139
12,CCC1Oc2ccccc2N(CC(=O)Nc2ccc(OC)cc2OC)C1=O (centres undefined),-0.129
13,COc1ccc(OC)c(C2CC(=O)N3CN(c4cccc(Cl)c4C)CSC3=C2C#N)c1 (centres undefined),-0.332
14,OC(COc1cccc2ccccc12)CN1CCCC1 (centres undefined),-0.674
15,CCOC(=O)/C=C/C(=O)Nc1cccc([N+](=O)[O-])c1,-0.53
16,COc1cc(C2C(C#N)=C(N)Oc3cc(C)n(CCN4CCOCC4)c(=O)c32)cc(OC)c1OC (centres undefined),-0.721
17,O=C(N/N=C/c1ccc(O)c(O)c1O)/C(=C/c1ccc([N+](=O)[O-])cc1)NC(=O)c1ccccc1,0.321
18,COc1ccc(CCN2C(=O)C3C4CC(C5C(C(=O)N/N=C\c6ccc(Cl)cc6)=NOC45)C3C2=O)cc1OC (centres undefined),-0.197
19,CC(=O)OCCN(CCOC(C)=O)c1c(C)[nH]c(=O)[nH]c1=O,0.103
20,O=C(c1oc(=O)c2ccccc2c1-c1ccccc1)N1CCC(O)CC1,0.0108
21,COc1ccc(NS(=O)(=O)c2ccc(NC(=O)c3cnn4c(C(F)F)cc(-c5ccc(C)cc5)nc34)cc2)cc1,0.268
22,CCOCCCNC(=O)C1CCN(S(=O)(=O)c2ccc(C)cc2)CC1,-0.101

row,SMILES,z-score
1,COc1ccc(NC(=S)Nc2cc(-c3ccccc3)[nH]n2)cc1Cl,0.00201
2,CC(C)(C)c1ccc(/C=N/NC(=O)Cc2c[nH]c3ccccc23)cc1,-0.159
3,N#Cc1c(NC(=O)Cn2nc(C(F)(F)F)c3c2CCCC3)sc2c1CCC2,-0.15
4,CC(=O)C1=C(C)NC(=O)NC1c1cc(Br)ccc1OCC(N)=O (centres undefined),0.636
5,COc1ccc(C(C(=O)NC2CCCC2)N(Cc2ccccc2)C(=O)CNC(=O)c2ccco2)cc1 (centres undefined),1.11
6,COc1cccc(C2(O)CCN(C(=O)C3CCC3)CC2)c1,-0.284
7,Cc1nn2c(NCC(C)C)c3c(nc2c1-c1ccccc1)CCC3,-0.389
8,COC(=O)c1c(NC(=O)c2ccco2)sc2c1CCC2,-0.464
9,CCC(c1ccccc1)c1nc(-c2cccnc2)no1 (centres undefined),-0.533
10,N#Cc1c(N)sc(=S)c2c1CCCCC2,-1.62
11,Cc1cccc(NC(=O)CN2CCN(CC(=O)Nc3cccc(C)c3)CC2)c1,0.324
12,O=C(Nc1cccnc1)c1ccccc1Oc1ccccc1,-0.0244
13,CN1C(=O)c2ccccc2OC1(C)Cc1ccccc1 (centres undefined),-0.354
14,Cc1cc(=O)oc2c(CN3CCCCC3)c(O)c(Cl)cc12,0.27
15,CC1(NC(=O)CC[N+](C)(C)CCO)CS(=O)(=O)CC1S(=O)(=O)[O-] (centres undefined),-0.364
16,CC(=O)N1CCc2cc(S(=O)(=O)NCCC(=O)N3CCN(Cc4ccccc4)CC3)ccc21,-0.133
17,COc1ccc(Nc2nnc(SCC(=O)/C=C3/N(C)c4ccccc4C3(C)C)s2)cc1,-0.201
18,O=C(c1ccco1)N1CCC(n2nnc3ccccc32)CC1,-0.0891
19,Cn1c(=O)c2c(n(Cc3ccccc3)c1=O)NC(=O)C2CC(=O)NCc1cccc(Cl)c1 (centres undefined),-0.128
20,O=C(NCc1ccco1)c1cnn2c(C(F)F)cc(-c3ccccc3)nc12,-0.312
21,COc1ccccc1N/N=C/c1c(CO)cnc(C)c1O,0.749
22,CCOC(=O)c1ccc(CC2S/C(=C(\C#N)C(C)=O)NC2=O)cc1 (centres undefined),-1.15

row,SMILES,z-score
1,COc1ccc(S(=O)(=O)Nc2ccccc2C(F)(F)F)cc1,-0.0378
2,Cc1ccc(S(=O)(=O)N2CCCC2C(=O)O)cc1 (centres undefined),0.451
3,Cc1cccc(NC(=S)NC2CC3CCCC(C2)N3CC(C)C)c1C (centres undefined),-0.0583
4,O=Nc1ccc(NOC(=O)c2ccc(Br)cc2)cc1,-0.0144
5,CC(C)n1c(SCC(=O)Nc2ccccc2N2CCCCC2)nc2c1c(=O)n(C)c(=O)n2C,-0.0538
6,O=C(Oc1coc(CSc2ncccn2)cc1=O)c1ccc(Br)o1,-0.395
7,N#CCSc1nnc(Cc2cccs2)n1C1CCCCC1,0.279
8,O=C(c1ccccc1Cl)N1N=C(c2ccc(Br)cc2)CC1c1nc2ccccc2[nH]1 (centres undefined),-0.0429
9,O=C(COc1cccc(Cl)c1)Nc1ccc(N2CCOCC2)cc1,-0.304
10,O=C(Cc1cccs1)NCCN1CCOCC1,-0.155
11,CCOC(=O)CC(=O)CSc1nc2ccccc2c(=O)n1-c1ccc(C(=O)NCCOC)cc1,0.691
12,O=C(CSc1nnc(Cc2csc(Nc3cccc(Cl)c3)n2)o1)N1CCc2ccccc21,-0.129
13,CCc1nc(SCC(=O)Nc2sc(C)c(C)c2C(=O)OC)c2ccccc2n1,-0.709
14,CC(=O)N1C(c2ccccc2)CC(=O)OC1c1ccc2c(c1)OCO2 (centres undefined),0.47
15,Cc1sc2nc(SCC(=O)c3cc(C)n(CC4CCCO4)c3C)n(C(C)C)c(=O)c2c1C (centres undefined),0.26
16,CCCCCC(=O)NC(NC(=S)NC1CCS(=O)(=O)C1)C(Cl)(Cl)Cl (centres undefined),0.31
17,COc1ccccc1C(=O)Oc1ccc(C(C)C)cc1,-0.107
18,COc1ccc(N2CCN(C(=O)Cc3nn(C)c(=O)c4ccccc34)CC2)cc1,-0.144
19,CCOC(=O)c1sc(-c2ccc(OC)cc2)cc1N,-0.101
20,COc1ccc(C2=NOC(C(=O)O)C2)cc1 (centres undefined),0.193
21,CC(=O)Nc1ccc2c(c1)OCCOCCOc1cc(NC(C)=O)ccc1OCCOCCOCCO2,-0.78
22,COCCNC(=O)c1ccc(NC(C)=O)cc1,-0.165

row,SMILES,z-score
1,CCOC(=O)Cc1csc(N/N=C/c2ccc(C(F)(F)F)cc2)n1,-0.035
2,CCN(CC)CCN1C(=O)C(O)=C(C(=O)c2ccco2)C1c1ccccn1 (centres undefined),-0.137
3,O=C(CCN1C(=O)COc2ccccc21)NCCN1CCc2ccccc2C1,-0.306
4,Cc1ccc(-c2noc(C3CCCCC3)n2)cc1,0.968
5,CCC(=O)OCCNc1cc(SCCC(=O)OC)c2nonc2c1[N+](=O)[O-],-0.319
6,O=C(Nc1ccon1)c1cc2c(s1)CCCC2,-0.236
7,O=C(Cn1cnc2ccccc21)N/N=C/c1ccccn1,0.141
8,Cc1cc2cc(CCNS(C)(=O)=O)c(=O)[nH]c2cc1C,-0.359
9,c1ccc(-n2nnnc2-n2cnc3ccccc32)cc1,-0.142
10,COc1cccc(/C=N/NC(=O)c2ccc(=O)n(C)c2)c1O,-0.083
11,CCn1c2ccccc2c2cc(NC(=O)C(C)Oc3ccccc3)ccc21 (centres undefined),-0.0626
12,O=C(OCc1ccccc1)C1=NNC2C(=O)N(c3ccccc3)C(=O)C12 (centres undefined),0.112
13,O=C(Cc1ccccc1)NC(NC(=S)Nc1cc(Cl)ccc1Cl)C(Cl)(Cl)Cl (centres undefined),-0.195
14,Cc1cc2ccccc2n1CCNC(=O)c1ccc(S(=O)(=O)N2CCCCC2)cc1,1.13
15,CC(=O)C1=C(O)C(=O)N(Cc2cccnc2)C1c1ccc(C)cc1 (centres undefined),0.0739
16,C=CCSC1=C(C#N)C(c2ccccc2)CC(=O)N1 (centres undefined),-0.258
17,CCOC(=O)N1CCN(c2nc3ccccc3nc2C(C#N)S(=O)(=O)c2ccc(C)cc2)CC1 (centres undefined),-0.937
18,COc1ccccc1CNC(=O)C1CC(c2ccc([N+](=O)[O-])cc2)=NO1 (centres undefined),-0.0054
19,O=C(NCCO)c1ccc(-c2nnc(N3CCOCC3)c3ccccc23)cc1,-0.293
20,CC1=NN(C(=S)Nc2ccccc2)C(c2ccccc2)C1 (centres undefined),0.129
21,S=c1[nH]nc(-c2ccc(Cl)cc2)n1Cc1ccccc1,0.351
22,CC(NC(=O)c1ccc(N(C)C)cc1)C1CC2CCC1C2 (centres undefined),-0.166

row,SMILES,z-score
1,Cc1ccc(-n2nc(CN3CCOCC3)c(-c3ccccc3)c2N)c(C)c1,-0.0359
2,O=C(Nc1ccc2c(c1)OCCO2)c1cccc2nc3ccccc3nc12,-0.26
3,CC(C(=O)NCc1ccccc1)N1C(=O)CN(C)C(=O)c2ccccc21 (centres undefined),-0.0841
4,O=C(c1ccco1)N1CCN(C(=O)C2CCCN(S(=O)(=O)Cc3ccccc3)C2)CC1 (centres undefined),0.318
5,O=C(CCCc1cccs1)Nc1nc2c(s1)CCCC2,-0.0904
6,CC(C)(C)c1ccc(S(=O)(=O)NC(Cc2ccccc2)C(=O)O)cc1 (centres undefined),0.161
7,C=CCn1c(SCc2csc(C)n2)nc2sc3c(c2c1=O)CCC(C)C3 (centres undefined),-0.156
8,CSc1ccccc1NC(=O)Cn1c(-c2cscn2)nc2ccccc21,-0.447
9,COc1ccc(CCNC(=O)C2CC(c3c(Cl)cccc3Cl)=NO2)cc1 (centres undefined),-0.318
10,O=C(Nc1ccccc1-c1nnn(CC(=O)N2CCCc3ccccc32)n1)c1ccc(Cl)cc1,-0.222
11,Cc1ccccc1-n1c(SCC(=O)Nc2ccc3c(c2)OCO3)nnc1-c1ccccn1,-0.56
12,CC(C)(C)n1nc(-c2ccc(Cl)cc2)c2c(N)ncnc21,-0.248
13,NC(=O)c1c(NC(=O)C2c3ccccc3Oc3ccccc32)sc2c1CCCCC2,-0.11
14,Cc1nc2nc[nH]n2c(=O)c1CC(=O)O,-0.46
15,CCCOc1ccc(C2/C(=C(/O)c3ccc(F)cc3)C(=O)C(=O)N2CCCN(C)C)cc1 (centres undefined),0.269
16,Cc1cccc(NCc2cc(Cl)cc(Cl)c2O)n1,-0.205
17,CN(C)c1ccc(N=Nc2ccccc2C(=O)OCC(=O)NC2CCCC2)cc1,-0.235
18,COc1ccccc1NCCC(=O)OCC(=O)NC1CCCCC1,0.0617
19,Cc1ccc(NC(=O)Nc2ccc(C(=O)N3CCOCC3)cc2)cc1,0.492
20,Nc1nonc1-c1noc(N2CCCCC2)n1,0.26
21,COc1cc2c(cc1OC)CN(CC(=O)NC(=O)NCc1ccco1)CC2,0.468
